# According to US20050142080A1, “Cosmetic or dermatological light protection formulation with a benzoxazole derivative” (Beiersdorf AG, priority 2001, published 2005):
# Settings: K10T tensiometer from Krüss with a ring against air
row,Compound,σ [mN/m] at 25° C. (surface tension) [mN/m]
1,CCCCOC(=O)CCCCC(=O)OCCCC [Dibutyl Adipate],22.7
2,"CCCCC(CC)COC(=O)c1ccc2cc(C(=O)OCC(CC)CCCC)ccc2c1 (stereo not shown) [Diethylhexyl 2,6-Naphthalate]",32.6
3,"CCCCN(CCC(=O)OCC)C(C)=O [Ethyl Butylacetylaminopropionate, ethyl 3-(N-n-butyl-N-acetylamino)propionate]",27.0
4,"CCCCC(CC)COC(=O)C=Cc1ccc(OC)cc1 (stereo not shown) [Ethylhexyl Methoxycinnamate, 2-ethylhexyl 4-methoxycinnamate]",32.4
5,"CCCCC(CC)COC(=O)c1ccccc1O (stereo not shown) [Ethylhexyl Salicylate, 2-ethylhexyl 2-hydroxybenzoate]",32.2
6,"CC1CC(OC(=O)c2ccccc2O)CC(C)(C)C1 (stereo not shown) [Homosalate, homomenthyl salicylate]",33.2
7,"COc1ccc(C=CC(=O)OCCC(C)C)cc1 [Isoamyl-p-Methoxycinnamate, isopentyl 4-methoxycinnamate]",34.2

# Further lines, results first:
row,σ [mN/m] at 25° C. (surface tension) [mN/m],Compound
1,26.3,CCCCCCCCCCCCCCCCCC(=O)OC(C)C [Isopropyl Stearate]
2,35.7,"CCCCC(CC)COC(=O)C(C#N)=C(c1ccccc1)c1ccccc1 (stereo not shown) [Octocrylene, 2-ethylhexyl 2-cyano-3,3-diphenylacrylate]"
3,28.7,CCCCCCCCCCCCCCCCCCOC(=O)CCCCCC [Stearyl Heptanoate]
4,29.8,Octyldodecyl Myristate
5,30.8,Pentaerythrityl Tetraisostearate
6,25.2,Tridecyl Trimellitate
